# Source: PubChem BioAssay (NCATS)
# “And” between values parts separate entries of the source, which are not always exact repeats. Identical values can stand only once. The shares of active, inactive and inconclusive entries below differ from those in the screen. For part of these data: Where the call is inconclusive, the potency comes from a doubtful curve fit. The source holds several records for some structures; these can differ, active in one and inactive in another. The source made the active and inactive calls. Unless noted, calls follow the shape of the dose curve; as a rule, active = well fitted curve in the direction sought with a large enough effect; inconclusive = small, poorly fitted or top-dose-only effect, or another doubt; inactive = no such curve, though single readings can be large; an effect the other way counts as inactive or inconclusive.
# Key:
# [1] = Primary qHTS for inhibitors of nuclear receptor binding SET domain protein 2 (NSD2) in an isogenic RCH-ACV NSD2 p.E1099K mutant (9B) (AID 1645876); also: nearly all actives have a fitted effect of over 70% in size
# HEK293 = assay: Cytotoxic Profiling of Annotated Libraries Using Quantitative High-Throughput Screening (AID 1296008); details: Five cell lines viability, CellTiter-Glo ATP luminescence, 48-72 h; max response: stronger effect = lower value; also: nearly all actives have a fitted effect of over 60% in size; as to max response: % is scaled to controls: 0 for no effect and ±100 for the full control effect
# Procedure, shortened: (§1)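 Cytotoxicity was measured as CellTiter-Glo ATP luminescence, read after 10 min at room temperature. Compound treatment of the cells lasted 48 or 72 hr at 37 degrees Celsius in a qHTS format.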
# NIH3T3 = assay: as above; details: Five cell lines viability, CellTiter-Glo ATP luminescence, 48-72 h; max response: stronger effect = lower value
# Procedure, shortened: as §1
# C33A = assay: Primary qHTS to identify gynecologic anti-cancer compounds using libraries of approved drugs and bioactive compounds (AID 1345084); details: Gynecologic cancer cell panel viability, ATPlite luminescence, 48 h; series mostly up to 57.5 µM; also: nearly all actives have a fitted effect of over 55% in size; as to activity change, negative = cytotoxicity: % is scaled to controls: 0 for no effect and ±100 for the full control effect
# Procedure, shortened: (§2)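 In this quantitative HTS, cell killing is estimated from loss of ATP-dependent luciferase light. Cells see five compound concentrations over a 48 h exposure.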
# SKOV3 = assay: as above; details: Gynecologic cancer cell panel viability, ATPlite luminescence, 48 h; series mostly up to 57.5 µM
# Procedure, shortened: as §2
# Tov-21-G = assay: as above; details: Gynecologic cancer cell panel viability, ATPlite luminescence, 48 h; activity change, negative = cytotoxicity: at 57.5 µM (top of the series)
# Procedure, shortened: as §2
# [2] = P-glycoprotein substrates identified in KB-8-5-11 adenocarcinoma cell line, qHTS therapeutic library screen (AID 1346987); also: nearly all actives have a fitted effect of over 65% in size
# Procedure, shortened: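 KB-8-5-11, a colchicine-selected P-gp-overexpressing KB-3-1 subline, was grown without colchicine for the assay. Cells were seeded at 500 cells/well, dosed in concentration-response and incubated 72 h at 37 degree C, 5% CO2. Viability was read by CellTiter-Glo luminescence.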
# CAOV3 = assay: Primary qHTS to identify gynecologic anti-cancer compounds using libraries of approved drugs and bioactive compounds (AID 1345084); details: Gynecologic cancer cell panel viability, ATPlite luminescence, 48 h; series mostly up to 57.5 µM; also: nearly all actives have a fitted effect of over 55% in size; as to activity change, negative = cytotoxicity: % is scaled to controls: 0 for no effect and ±100 for the full control effect
# Procedure, shortened: as §2
# [3] = system: Zika virus NS2B-NS3 protease (unlinked complex); assay: Primary screen GU Rhodamine qHTS for Zika virus inhibitors: Unlinked NS2B-NS3 protease assay (AID 1347159); also: nearly all actives have a fitted effect of over 60% in size
# Procedure, shortened: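 Noncovalent NS2B hydrophilic domain–NS3 protease domain complex (25 nM) preincubated 15 min at room temperature with compounds (up to 114 microM) in 10 mM Tris-HCl pH 8.0, 0.01% Tween 20; 1.5 microM Rhodamine110 substrate added, fluorescence change over 15 min fitted to Hill equation.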
# [4] = target: Cytochrome P450 2D6 (Homo sapiens) (UniProt P10635); assay: Cytochrome P450 family 2 subfamily D member 6 (CYP2D6) small molecule antagonists: luciferase biochemical (cell-free) qHTS assay (AID 1645840; active = well fitted curve in the direction sought with a large enough effect in the repeat runs; inconclusive = weak or mixed curves; inactive = no such curve, though single readings can be large; an effect the other way counts as inactive or inconclusive; also: nearly all actives have a fitted effect of over 55% in size)
# Procedure, shortened: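 P450-Glo luminescent screen: recombinant CYP2D6 enzyme–proluciferin substrate mix preincubated with compound 10 min at room temperature, then NADPH regeneration added for 1 h at room temperature. Detection reagent added for 20 min; luciferin light read as relative luminescence units.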
# [5] = Primary fluorescence-based thiol-reactive (MSTI) qHTS assay for identification of artifact compounds. (AID 1845221);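 also: thiol-reactive compounds lower the probe fluorescence signal; nearly all actives have a fitted effect of over 65% in size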
# Procedure, shortened: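 One-hour, room-temperature, dark incubation of compound with 4 uM MSTI in PBS (pH 7.4, 2% DMSO) precedes a fluorescence read at 525 nm excitation, 598 nm emission; Hill-equation fitting yields concentration-response values.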
# CASKI = assay: Primary qHTS to identify gynecologic anti-cancer compounds using libraries of approved drugs and bioactive compounds (AID 1345084); details: Gynecologic cancer cell panel viability, ATPlite luminescence, 48 h; activity change, negative = cytotoxicity: at 57.5 µM (top of the series); also: nearly all actives have a fitted effect of over 55% in size; as to activity change, negative = cytotoxicity: % is scaled to controls: 0 for no effect and ±100 for the full control effect
# Procedure, shortened: as §2
# [6] = Primary redox qHTS assay for identification of artifact compounds. (AID 1845223)
# Procedure, shortened: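 Amplex Red (25 uM) and HRP (250 mU/mL) in HBSS, with compounds for 15 min, then 250 uM DTT for 30 min, room temperature, dark. Fluorescence 525/598 nm read; normalized to DMSO and 10 uM DA3003; Hill fit.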
# Hek293T = assay: Primary qHTS to identify gynecologic anti-cancer compounds using libraries of approved drugs and bioactive compounds (AID 1345084); details: Gynecologic cancer cell panel viability, ATPlite luminescence, 48 h, control line for the selectivity index; series mostly up to 57.5 µM; also: nearly all actives have a fitted effect of over 55% in size
# Procedure, shortened: as §2
# [7] = system: Zika virus NS2B-NS3 protease (linked construct); assay: Primary screen NINDS Rhodamine qHTS for Zika virus inhibitors (AID 1347160); also: nearly all actives have a fitted effect of over 55% in size
# Procedure, shortened: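 Purified linked NS2B-NS3 protease (NS2B hydrophilic domain joined to NS3 protease by flexible linker), 25 nM in 10 mM Tris-HCl pH 8.0, 0.01% Tween 20. Compounds titrated, 15 min preincubation at room temperature; 1.5 microM Rhodamine110 substrate, FITC fluorescence change over 15 min.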
# [8] = Primary qHTS for inhibitors of nuclear receptor binding SET domain protein 2 (NSD2) in an RCH-ACV wild type WT cells (2C) (AID 1645877); details: activity change, negative = cell killing: at 44.9 µM (top of the series); also: nearly all actives have a fitted effect of over 70% in size
# JEG-3 = assay: Primary qHTS to identify gynecologic anti-cancer compounds using libraries of approved drugs and bioactive compounds (AID 1345084); details: Gynecologic cancer cell panel viability, ATPlite luminescence, 48 h; series mostly up to 57.5 µM; also: nearly all actives have a fitted effect of over 55% in size
# Procedure, shortened: as §2
# PA-1 = assay: as above; details: Gynecologic cancer cell panel viability, ATPlite luminescence, 48 h; series mostly up to 57.5 µM
# Procedure, shortened: as §2
# OV90 = assay: as above; details: Gynecologic cancer cell panel viability, ATPlite luminescence, 48 h; series mostly up to 57.5 µM
# Procedure, shortened: as §2
# Potency is read from the fitted curve at half-maximal effect; tags tell the direction and shape of the fitted curve.
# Chain of UniProt P10635 (P10635 whole entry, looked up): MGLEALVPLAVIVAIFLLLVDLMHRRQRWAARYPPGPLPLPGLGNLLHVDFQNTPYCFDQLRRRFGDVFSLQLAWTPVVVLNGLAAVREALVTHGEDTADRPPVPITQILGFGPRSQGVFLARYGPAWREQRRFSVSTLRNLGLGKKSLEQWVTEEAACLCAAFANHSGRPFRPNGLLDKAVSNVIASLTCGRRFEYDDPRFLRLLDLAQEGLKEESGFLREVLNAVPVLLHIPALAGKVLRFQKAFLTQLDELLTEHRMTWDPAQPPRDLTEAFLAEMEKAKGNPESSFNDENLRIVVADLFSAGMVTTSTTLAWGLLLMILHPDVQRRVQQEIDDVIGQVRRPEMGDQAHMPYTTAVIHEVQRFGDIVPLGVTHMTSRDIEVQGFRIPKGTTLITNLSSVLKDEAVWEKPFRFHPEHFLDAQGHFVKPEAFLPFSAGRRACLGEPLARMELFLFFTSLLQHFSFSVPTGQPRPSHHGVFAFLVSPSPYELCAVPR
structure (smiles),measurement,setting,value
O=C(O)[C@H](O)[C@@H](O)[C@H](O[C@@H]1O[C@H](CO)[C@H](O)[C@H](O)[C@H]1O)[C@H](O)CO,Potency,[1],inactive
same,outcome,HEK293,inactive
same,max response,NIH3T3,inactive: -0.868%
same,Potency,C33A,inactive
same,Potency,SKOV3,"inconclusive: 35.5 µM [rising, single point]"
same,Potency,Tov-21-G,inactive
NCC(CNc1nc(Nc2cccc(NC(=O)N3CCCC3)c2)ncc1I)C(=O)c1cccs1 (configuration not stated),Potency,[2],"inconclusive: 29.1 µM [inhibitor, single point]"
same,Potency,HEK293,"inconclusive: 23.1 µM [inhibitor, single point]"
same,Potency,NIH3T3,"inconclusive: 25.9 µM [inhibitor, single point]"
same,Potency,CAOV3,"inconclusive: 39.8 µM [cytotoxic, single point]"
O=C(Nc1cc(-c2ccccc2)nn1-c1ccccc1F)c1ccc([N+](=O)[O-])cc1,Potency,[3],"inconclusive: 89.1 µM [inhibitor, partial curve, poor fit]"
same,Potency,[4],"inconclusive: 4.77 µM [inhibitor, single point]"
same,Potency,[1],"inconclusive: 20.5 µM [inhibitor, partial curve, poor fit]"
same,Potency,[5],"inconclusive: 1.19 µM [inhibitor, full curve]"
same,Potency,HEK293,active: 23.1 µM
same,outcome,NIH3T3,inactive
same,Potency,CASKI,inactive
NCCOCCOCCNC(=O)Cc1ccc(Nc2nc(NCc3ccc(F)cc3)nc(NCC3CCCCC3)n2)cc1,Potency,[1],"inconclusive: 23 µM [inhibitor, single point]"
same,Potency,[5],"inconclusive: 33.6 µM [inhibitor, single point]"
same,Potency,[6],"inconclusive: 4.23 µM [activator, partial curve, poor fit]"
same,outcome,HEK293,inactive
same,outcome,NIH3T3,inactive
same,Potency,Hek293T,inactive
CC1(C)CCC(C)(C)c2cc(C#Cc3ccc(C(=O)O)cc3)ccc21,Potency,[2],"inconclusive: 20.6 µM [inhibitor, partial curve, poor fit]"
same,Potency,[3],active: 1.58 µM
same,Potency,[7],"inconclusive: 0.794 µM [inhibitor, full curve]"
same,Potency,[4],"inconclusive: 37.9 µM [inhibitor, single point]"
same,Potency,[1],"inconclusive: 7.28 µM [inhibitor, partial curve, poor fit]"
same,Potency,HEK293,"inconclusive: 23.1 µM [inhibitor, single point]"
same,outcome,NIH3T3,inactive
same,Potency,CASKI,"inconclusive: 5.01 µM [rising, single point]"
same,Potency,SKOV3,"inconclusive: 1.12 µM [rising, full curve, poor fit]"
CC(C)(O)C1OC1C1=CC(=O)C2(C)OC2C1O (configuration not stated),Potency,[8],"inconclusive: 16.3 µM [inhibitor, partial curve]"
same,max response,HEK293,inactive: -1.71%
same,max response,NIH3T3,inactive: 3.09%
same,Potency,CASKI,"inconclusive: 4.47 µM [rising, partial curve, poor fit]"
same,Potency,SKOV3,"inconclusive: 1.12 µM [rising, partial curve]"
O=C1C[C@@H](c2ccc(O)cc2)Oc2cc(O)ccc21,Potency,[1],"inconclusive: 18.3 µM [inhibitor, single point]"
same,Potency,[8],"inconclusive: 18.3 µM [inhibitor, single point]"
same,outcome,HEK293,inactive
same,max response,NIH3T3,inactive: 1.22%
same,Potency,JEG-3,inactive
same,Potency,SKOV3,inactive
C=C1CCC2[C@](C)(CCC[C@@]2(C)C=O)[C@H]1CC/C(C)=C/CO (some centres not stated),Potency,[7],"inconclusive: 39.8 µM [inhibitor, single point]"
same,Potency,[1],"inconclusive: 23 µM [inhibitor, single point]"
same,Potency,[8],"inconclusive: 23 µM [inhibitor, single point]"
same,Potency,[5],"inconclusive: 37.7 µM [inhibitor, single point]"
same,Potency,HEK293,"inconclusive: 29.1 µM [inhibitor, single point]"
same,max response,NIH3T3,inactive: 1.76%
same,Potency,PA-1,"inconclusive: 0.794 µM [rising, partial curve, poor fit]"
same,Potency,SKOV3,inactive
CC(C)C(NC(=O)c1ccc2ccccc2n1)C(=O)NC(CC(=O)O)C(=O)COc1c(F)cccc1F (configuration not stated),Potency,[6],"inconclusive: 7.52 µM [activator, partial curve]"
same,max response,HEK293,inactive: -1.52%
same,max response,NIH3T3,inactive: -0.522%
Fc1ccc(-c2nc(-c3c(F)cccc3F)[nH]c2-c2ccncc2)cc1,Potency,[4],active: 2.68 µM
same,Potency,[1],"inconclusive: 7.28 µM [inhibitor, partial curve]"
same,Potency,[8],"inconclusive: 7.28 µM [inhibitor, partial curve]"
same,Potency,HEK293,"inconclusive: 29.1 µM [inhibitor, single point]"
same,Potency,NIH3T3,"inconclusive: 18.4 µM [inhibitor, single point]"
same,Potency,Hek293T,inactive
same,Potency,JEG-3,"inconclusive: 39.8 µM [rising, single point]"
same,Potency,OV90,"inconclusive: 1.26 µM [cytotoxic, partial curve, poor fit]"
same,Potency,SKOV3,"inconclusive: 11.2 µM [cytotoxic, partial curve, poor fit]"
CC1(C)CC23[C@@H]4CC(=O)[C@@H]2COC(=O)[C@@H]3CC[C@H]41,Potency,[2],"inconclusive: 29.1 µM [inhibitor, single point]"
same,Potency,[7],inactive
same,Potency,[1],active: 12.9 µM
same,Potency,HEK293,"inconclusive: 29.1 µM [inhibitor, single point]"
same,Potency,NIH3T3,"inconclusive: 14.6 µM [inhibitor, single point]"
same,Potency,Hek293T,"inconclusive: 31.6 µM [cytotoxic, single point]"
same,Potency,SKOV3,"inconclusive: 7.08 µM [rising, single point]"
same,Potency,Tov-21-G,"inconclusive: 22.4 µM [cytotoxic, single point]"
Cc1cc(C(=O)N2Cc3cnn(C)c3Nc3ccccc32)ccc1CNC(=O)N1CCC[C@H]1C(=S)N1CCCN(C)CC1,Potency,[1],inactive
same,Potency,[6],inactive
same,max response,HEK293,inactive: -0.106%
same,Potency,NIH3T3,"inconclusive: 0.92 µM [inhibitor, full curve, poor fit]"
same,Potency,CASKI,"inconclusive: 8.91 µM [cytotoxic, single point]"
same,Potency,SKOV3,"inconclusive: 39.8 µM [rising, single point]"
same,Potency,Tov-21-G,inactive
CCCCCc1ccc(/C=C/C(=O)Nc2cc(Cl)ccc2C(=O)O)cc1,Potency,[3],"inconclusive: 2.24 µM [inhibitor, full curve, poor fit]"
same,Potency,[7],active: 2 µM
same,Potency,[8],inactive
same,Potency,HEK293,"inconclusive: 18.4 µM [inhibitor, single point]"
same,Potency,NIH3T3,"inconclusive: 29.1 µM [inhibitor, single point]"
same,Potency,CAOV3,inactive
C/C=C/C1=CC2=C(CO1)C(=O)C(C)(OC(=O)c1c(C)cc(O)cc1OC)C(O)C2 (configuration not stated),Potency,[1],"inconclusive: 14.2 µM [inhibitor, single point]"
same,Potency,[8],"inconclusive: 20.1 µM [inhibitor, single point]"
same,Potency,HEK293,"inconclusive: 20.2 µM [inhibitor, single point]"
same,max response,NIH3T3,inactive: 1.21%
O=C(OC1CN2CCC1CC2)N1CCc2ccccc2C1c1ccccc1 (configuration not stated),Potency,[2],"inconclusive: 8.2 µM [inhibitor, partial curve, poor fit]"
same,Potency,[7],inactive
same,Potency,HEK293,"inconclusive: 23.1 µM [inhibitor, single point]"
same,Potency,NIH3T3,"inconclusive: 29.1 µM [inhibitor, single point]"
same,Potency,OV90,"inconclusive: 22.4 µM [cytotoxic, single point]"
CCCN1C[C@H](CSC)C[C@@H]2c3cccc4[nH]cc(c34)C[C@H]21,Potency,[2],"inconclusive: 18.4 µM [inhibitor, single point] and inactive"
same,Potency,[3],"inconclusive: 89.1 µM [inhibitor, single point]"
same,Potency,[4],active: 0.055 µM
same,Potency,[1],"inconclusive: 23.7 µM [inhibitor, single point] and inactive"
same,Potency,[8],"inconclusive: 23.7 µM [inhibitor, single point] and inconclusive: 23 µM [inhibitor, single point]"
same,Potency,HEK293,"inconclusive: 29.9 µM [inhibitor, single point] and inconclusive: 20.6 µM [inhibitor, single point]"
same,Potency,NIH3T3,active: 21.1 µM
same,Potency,CASKI,"inconclusive: 5.62 µM [rising, single point]"
same,Potency,OV90,"inconclusive: 20 µM [cytotoxic, single point]"
